Consider 57 sequences from the supplement of paper PMC11417369.

This is one part of the list.

The experiment relates to PfAP2-HC AP2 domain (GST-tagged). As to the kind of experiment: gcPBM binding intensity (ln(normalized median fluorescence intensity)); higher = stronger DNA binding. A digest of the protocol: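 The highest Masliner-normalised natural-log median intensity across replicate spots of either probe orientation is reported as binding intensity. GST-tagged P. falciparum DNA-binding domains expressed in E. coli were applied for 1 h to an Agilent 4 × 180k array of primer-extended double-stranded 36-bp intergenic genomic probes plus negative controls, and bound protein was detected with Alexa488 anti-GST antibody and scanned at 488 nm.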
Turning to “ATAAATTAAAGACACACACACATCTGGATACCCCTA [CACACA_site7546]”, the “gcPBM binding intensity (ln)” value was determined as 10.4. On to “TACATGCATTTCTCATGTACATAATTTTCCCATATT [XGTACX_site5158]”, for which the “gcPBM binding intensity (ln)” value is 9.61. As to “TTATATTATATATATAGTACACATGTAATATTTCAA [XGTACX_site1791]”, the “gcPBM binding intensity (ln)” value turned out to be 9.51. For the sequence “TATGCTACAAGGAGAACACACAATTGCCACTTTTGG [CACACA_site2166]”, the “gcPBM binding intensity (ln)” value amounted to 9.71.

In the case of “AACCATTATTTCTCTACACACATTTATGTCATTTAC [CACACA_site1499]”, the “gcPBM binding intensity (ln)” value amounted to 10.1. For the sequence “TCCTTATATGGGCACACACACACAATAAAATGAAAA [CACACA_site1030]”, the “gcPBM binding intensity (ln)” value is 10.3. On to “AAAATTAGGTATATATGTACATATATAAATATATAT [XGTACX_site3555]”, for which the “gcPBM binding intensity (ln)” value was found to be 9.86. For the sequence “GTTTATATTAAACAAACACACACATATATATATATA [CACACA_site8749]”, the “gcPBM binding intensity (ln)” value came out at 9.84. Regarding “ATTTAGAATGCGTATACACACATATATAGATTTGCT [CACACA_site626]”, the “gcPBM binding intensity (ln)” value worked out at 9.77. The value for “AAAAAAATTAGACACACACACACATATAAATATGTA [CACACA_site6618]” was 10.8; that for “AATAGAACTATTACACGTACAGAACATGAATTAGTT [XGTACX_site7518]” was 9.74. The value for “TTTTTTAATTAGTACAAACACACATATACAGACAAA [CACACA_site2564]” was 9.9; that for “TGTTATATATGTAATTGTACACTTATACAAAATTAT [XGTACX_site6350]” was 9.65; that for “TTATTAATATATAAATGTACATATACAATACATAAA [XGTACX_site5571]” was 9.65. As to “TATTTAAGAGTATGAACACACATCATACACATATAA [CACACA_site3617]”, the “gcPBM binding intensity (ln)” value turned out to be 9.77. “TATGTTTGTGTATATATTTATTTTTATGTAATTATA [GTGCAC_negctrl_site219]”: the “gcPBM binding intensity (ln)” value stood at 9.93.

In the case of “CAAAATATAACATCATCACACACATATACTTTATAT [CACACA_site8292]”, the “gcPBM binding intensity (ln)” value is 10.8.

As for “ATTTAAAAATAAAGAACACACATATGTAAAATATAT [CACACA_site3754]”, the “gcPBM binding intensity (ln)” value was 9.84. Turning to “TCAGGAATATAAAGTGCACACATAATTTGGGGGCAA [CACACA_site7974]”, the “gcPBM binding intensity (ln)” value was 10.1. As for “TATATAAGGATATATACACACATATAGGTATTTATA [CACACA_site7092]”, the “gcPBM binding intensity (ln)” value stood at 9.86.

In the case of “TTTTAAAAAAATAAAAAATAATAAAAAAAATAAAAA [CACACA_negctrl_site1693]”, the “gcPBM binding intensity (ln)” value was 9.26. In the case of “AATATGATTATTACCCGTACATATTACCTTATGGTA [XGTACX_site1714]”, the “gcPBM binding intensity (ln)” value was found to be 9.61. On to “AATGATATTATCTCTTCACACACTCACATACAGACA [CACACA_site8335]”, for which the “gcPBM binding intensity (ln)” value was determined as 10.3. To “AAAAATAAATAAAGTGGTACATAAAAAAGAGAAATT [XGTACX_site874]” belongs 9.9. Regarding “GTGCATATGTAGATATGTACATATTTATTTATTATT [XGTACX_site7343]”, the “gcPBM binding intensity (ln)” value is 9.72. The value for “TTTACAGATACATTCACACATAAATTCATGTATAAT [CACACA_site5387]” was 9.72; that for “ATATATAATTTTTGTTGTACATTATAAAAATAATTA [XGTACX_site2738]” was 9.09; that for “ATTGTTATGAGAACAGCACACAAGCTACATCATATA [CACACA_site8192]” was 9.77. The value for “GCGGCGGTATCATGCACACGTATATATTGTAACAGT [CACACA_site4958]” was 9.79; that for “TCATTGAAAAAAATGTGTACTCATCAAGTATATATT [XGTACX_site6430]” was 9.56; that for “ATAAGAAAAAAGAACTGTACTAATAAAATATAAAAA [XGTACX_site3715]” was 9.64. Take “ATTATATAATTGTCTTCACACACACCGATATATATA [CACACA_site8883]”: the “gcPBM binding intensity (ln)” value is 10.5. For “GGATTTATTATATATACACACATACATATATATATA [CACACA_site8669]”, the “gcPBM binding intensity (ln)” value was 9.88. “GTCTAAGCTTATAGGCGTACACATGAATATGGATGT [XGTACX_site2439]”: the “gcPBM binding intensity (ln)” value was found to be 9.78. Take “ATACATAAAATTAAAACACACATTTGATTAAATACG [CACACA_site7088]”: the “gcPBM binding intensity (ln)” value worked out at 9.79.

For the sequence ATCAAGCGCAATGTGGTGCGTAAATTTTGTATTATA, the “gcPBM binding intensity (ln)” value turned out to be 9.6. On to “AAAGGATACAGACACACACACACATATATATATATA [CACACA_site906]”, for which the “gcPBM binding intensity (ln)” value is 10.8. As to “TCCTTAAAATATATCACACATTTCGTTCATTTATAA [CACACA_site4346]”, the “gcPBM binding intensity (ln)” value is 9.61. Regarding “TATATATATATATCCACACACATACAGATATTAAGA [CACACA_site4214]”, the “gcPBM binding intensity (ln)” value came out at 10.1. In the case of “AGTATACGAATAAAATGTACATACAAATTGTTGTAA [XGTACX_site36]”, the “gcPBM binding intensity (ln)” value is 9.81. As for “ATTCACGTGTCTTAAAAAAAAAAAAAAGAAAAAAAG [CACACA_negctrl_site573]”, the “gcPBM binding intensity (ln)” value is 9.25.

As to “ATATATATATATATATGTACATATATATACATATAT [XGTACX_site6987]”, the “gcPBM binding intensity (ln)” value was determined as 10.1. For “ATAATATATATACAAACACACAATTGTGTCCACATT [CACACA_site1747]”, the “gcPBM binding intensity (ln)” value is 10. As for “TGTACATATATATAATATATATATCATCATATTTTC [CACACA_negctrl_site1750]”, the “gcPBM binding intensity (ln)” value turned out to be 9.69. With “ATATATATGTGAAAATCACACATTGCTTATCTGTAA [CACACA_site6044]”, the “gcPBM binding intensity (ln)” value is 9.73. On to “TGTTTTATTATTTATAGTACATAAAAAAATATTGTA [XGTACX_site8963]”, for which the “gcPBM binding intensity (ln)” value worked out at 9.36. For the sequence “TTCGTATATTATTAATGTACATTATAAAATCAATAT [XGTACX_site5751]”, the “gcPBM binding intensity (ln)” value is 9.66.

As to “AAAAAAACATGAAACACACACAAATATATATATATA [CACACA_site1884]”, the “gcPBM binding intensity (ln)” value is 10.

In the case of “AACAATATTATTGTTTGTACTCACATATATAATATA [XGTACX_site8063]”, the “gcPBM binding intensity (ln)” value came to 9.5. Consider “AAAAAAAAAAAAAAAAAAAAAAAAAAAATTCTATAT [GTGCAC_negctrl_site468]”, for which the “gcPBM binding intensity (ln)” value turned out to be 9.62. Regarding “AAGGCATACAATACCTGTACGCAACCTTAAAAAGAA [XGTACX_site6070]”, the “gcPBM binding intensity (ln)” value was determined as 9.73. The value for ATTTTCATGATAAAGGTGCAATTATTTTTATAAGAA was 9.58. To “TATATATATATATATGGTACAGTTTATGCCTTTTAA [XGTACX_site6695]” belongs 9.52. Regarding “TTATTTATAATATATACACACTAACATTATTTATCC [CACACA_site4835]”, the “gcPBM binding intensity (ln)” value was 9.69.

As for “TATAATATATACAAATGTACATATATATATATATAT [XGTACX_site4559]”, the “gcPBM binding intensity (ln)” value was determined as 9.57.

Consider “AGATATTTCATTTAAAGTACATTCTTTATCACATAA [XGTACX_site6731]”, for which the “gcPBM binding intensity (ln)” value turned out to be 9.57. As for “CACACGCACAAAAACACACACAAAGGTGTTCTTATA [CACACA_site6724]”, the “gcPBM binding intensity (ln)” value was 10.1.
